From PubChem BioAssay AID1476 (National Center for Advancing Translational Sciences (NCATS), 2009)
The campaign covered roughly 200,000 compounds. About 4,500 (2.2%) were called active. Inconclusive means that the source gave no clear call. Such entries were picked first, then a sample of the others. Calls come from the whole dose curve; as a rule, active = well fitted inhibition curve with a large enough effect; inconclusive = small, poorly fitted or top-dose-only effect, or effect the other way; inactive = flat fitted curve, though single readings scatter. Potencies beside an inconclusive call are fits to weak or partial responses and may not hold up.

Target: Cruzipain (Trypanosoma cruzi) (UniProt P25779)
UniProt P25779, sequence (P25779 whole entry, looked up): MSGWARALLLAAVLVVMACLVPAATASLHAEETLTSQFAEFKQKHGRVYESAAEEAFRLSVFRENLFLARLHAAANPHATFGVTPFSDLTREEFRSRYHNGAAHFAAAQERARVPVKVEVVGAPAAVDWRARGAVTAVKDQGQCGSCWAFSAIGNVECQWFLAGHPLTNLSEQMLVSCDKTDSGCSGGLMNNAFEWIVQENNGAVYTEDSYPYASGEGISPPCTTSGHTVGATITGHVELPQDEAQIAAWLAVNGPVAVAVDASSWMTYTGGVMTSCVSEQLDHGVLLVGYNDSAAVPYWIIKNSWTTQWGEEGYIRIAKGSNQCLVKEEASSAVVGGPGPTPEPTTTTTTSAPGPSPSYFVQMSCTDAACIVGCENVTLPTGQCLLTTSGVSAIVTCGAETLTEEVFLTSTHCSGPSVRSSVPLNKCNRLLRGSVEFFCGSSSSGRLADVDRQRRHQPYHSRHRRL
Assay: qHTS Assay for Promiscuous and Specific Inhibitors of Cruzain (without detergent); note: nearly all actives have a fitted effect of over 40% in size;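 for max response, negative = inhibition: plate controls were enzyme without inhibitor for no effect and buffer without enzyme for full effect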
Details: purified cruzain, Z-FR-AMC fluorescence, no detergent
Method in brief: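 Detergent-free condition (0.00005% Triton X-100) in acetate buffer pH 5.5 with DTT. 1.5 nM enzyme and compound were pre-mixed 15 min, then 2 uM Z-FR-AMC substrate added; reaction progress from fluorescence change between first and third reads (60 s).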
Potency is the fitted concentration of half-maximal effect; tags give direction and shape of the fitted curve.

Row | SMILES | Potency | max response, negative = inhibition
1 | CCOc1ccc(S(=O)(=O)NCC(c2ccc(N(C)C)cc2)N2CCc3ccccc32)cc1 (stereo not drawn) | inconclusive: 31.6 µM [inhibitor, single point] | 
2 | O=C(N=Nc1c(O)n(Cc2ccccc2)c2ccccc12)c1ccc(O)cc1 | inconclusive: 39.8 µM [inhibitor, single point] | 
3 | Cc1ccc(-c2cc(C(=O)NCc3cccs3)no2)cc1 | inconclusive: 20 µM [inhibitor, partial curve] | 
4 | Cc1cc2nc(/N=C(\N)NC(=O)N3c4ccccc4Sc4ccccc43)nc(C)c2cc1C | active: 15.8 µM | 
5 | CCC(=O)N1CCc2cc(Br)cc(S(=O)(=O)N(CC)Cc3ccccc3)c21 |  | inactive: -1.73%
6 | O=C(Cc1ccccc1F)N1CCC(c2nc3c(nnn3Cc3cccc(Cl)c3)c(=O)[nH]2)CC1 | inconclusive: 31.6 µM [activator, partial curve] | 
7 | CC1CCc2c(sc(NC(=O)c3ccc(-c4ccccc4[N+](=O)[O-])o3)c2C#N)C1 (stereo not drawn) | active: 10 µM | 
8 | CCOc1ccc(Nc2nc(Cc3nnc(SCC(=O)c4ccc(C)c(C)c4)o3)cs2)cc1 | inconclusive: 31.6 µM [inhibitor, single point] | 
9 | O=C(Cc1cccc2ccccc12)NC(NC(=S)Nc1ccccc1Cl)C(Cl)(Cl)Cl (stereo not drawn) | inconclusive: 39.8 µM [inhibitor, single point] | 
10 | COc1ccc(NC(=O)Cn2nnc(C(=O)Nc3ccc(C)c(F)c3)c2N)cc1Cl |  | inactive: 6.47%
11 | COCCNC(=O)c1ccc(N2CCCCC2)c(NS(=O)(=O)c2ccc(C)cc2)c1 | inconclusive: 39.8 µM [activator, single point] | 
12 | CCOC(=O)c1c(NC(=O)C(C)N2CCN(C(=O)c3ccco3)CC2)sc2c1CCCC2 (stereo not drawn) | inconclusive: 15.8 µM [activator, partial curve] | 
13 | O=C(NCCCCc1ccccc1)c1nn(-c2ccccc2)nc1CO |  | inactive: 12.9%
14 | Cc1ccc(S(=O)(=O)n2nc(OC(=O)c3c(-c4ccccc4Cl)noc3C)cc2N)cc1 | inconclusive: 31.6 µM [inhibitor, single point] | 
15 | COc1ccc(-n2cc(-c3ccccc3)c3c(NCCc4ccc(OC)c(OC)c4)ncnc32)cc1 | inconclusive: 12.6 µM [activator, partial curve, poor fit] | 
16 | Cc1ccc(S(=O)(=O)/C(C#N)=C/c2c(N3CCOCC3)nc3ccccn3c2=O)cc1 | inconclusive: 39.8 µM [activator, single point] | 
17 | Cc1cc2cccc(C)c2nc1SCC(=O)N(C)c1nc(-c2ccccc2)cs1 | inconclusive: 7.94 µM [inhibitor, single point] | 
18 | O=C(CSc1nnc(-c2ccccc2)o1)Oc1ccc(Br)cc1 | inconclusive: 39.8 µM [inhibitor, single point] | 
19 | O=C(CSc1oc(-c2ccco2)nc1S(=O)(=O)c1ccccc1)c1ccc(Cl)cc1 | inconclusive: 39.8 µM [inhibitor, single point] | 
20 | CCN(Cc1ccccc1)c1ccc(N=Nc2nn(C)c(C)c2[N+](=O)[O-])cc1 | inconclusive: 25.1 µM [activator, single point] | 
21 | COc1ccc(NC(=O)C2(c3ccc(NC(=O)c4ccc(OC)cc4)cc3)CCCC2)cc1 | active: 7.94 µM | 

Row | SMILES | Potency | max response, negative = inhibition
22 | CN(CCCNC(=O)c1cn(C)c2ccc(S(=O)(=O)N(C)C)cc2c1=O)c1ccccc1 | inconclusive: 39.8 µM [activator, single point] | 
23 | CCCCN(CCCNC(=O)C1CCN(S(=O)(=O)CC)CC1)c1ccccc1 | inconclusive: 25.1 µM [activator, single point] | 
24 | Cc1ccc(Nc2c(-c3ccc(N4CCOCC4)cc3)nc3ncccn23)cc1C | inconclusive: 39.8 µM [activator, single point] | 
25 | CCc1ccc(Cn2nnc(C(=O)Nc3ccc(C)cc3)c2N)cc1 | inconclusive: 5.01 µM [inhibitor, full curve, poor fit] | 
26 | O=C(Nc1ccc(N2CCN(C(=O)c3ccc(Cl)cc3)CC2)cc1)c1cc2ccccc2o1 | inconclusive: 39.8 µM [inhibitor, single point] | 
27 | CCCCS(=N)(=O)CC[C@H](N)C(=O)O (stereo partly drawn) |  | inactive: 8.17%
28 | CC(C)c1ccc(N(CC(=O)Nc2ccc(S(=O)(=O)N3CCOCC3)cc2)S(C)(=O)=O)cc1 | inconclusive: 31.6 µM [activator, single point] | 
29 | CCc1ccc2occ(CC(=O)Nc3sc4c(c3C(=O)OC)CCC4)c2c1 |  | inactive: -27.1%
30 | CCOc1ccc(OCC)c(NC(=O)C2CCN(S(=O)(=O)c3c(C)noc3C)CC2)c1 | inconclusive: 39.8 µM [activator, single point] | 
31 | Cc1nc2c(-c3ccccc3)c(C)nn2c(C)c1CCC(=O)NCc1ccco1 | inconclusive: 39.8 µM [activator, single point] | 
32 | Cc1ccc(OCC(=O)Nc2ccc(S(=O)(=O)N(Cc3ccccc3)c3ccccc3)cc2)cc1 | active: 7.94 µM | 
33 | CS(=O)(=O)Nc1cccc(-c2nc(Nc3ccncc3)c3ccccc3n2)c1 |  | inactive: 4.29%
34 | N#C/C(=C\c1ccc(-c2ccc([N+](=O)[O-])cc2Br)o1)C(=O)N1CCN(c2ccccc2)CC1 | active: 12.6 µM | 
35 | CCn1nnc(-c2ccccc2NC(=O)c2cc(OC)cc(OC)c2)n1 | inconclusive: 39.8 µM [activator, single point] | 
36 | COc1ccc2ccccc2c1/C=N/NC(=S)Nc1cc(S(=O)(=O)N2CCOCC2)ccc1N1CCOCC1 | inconclusive: 20 µM [inhibitor, single point] | 
37 | COC(=O)c1c(NC(=S)Nc2ccccc2Cl)sc(C)c1C | active: 12.6 µM | 
38 | O=C(COc1cccc(Cl)c1)Nc1nc(-c2ccc(S(=O)(=O)N3CCOCC3)cc2)cs1 | active: 12.6 µM | 
39 | COc1ccc(C(=O)CC(Nc2ccc([N+](=O)[O-])cc2)c2ccc(Cl)cc2)cc1 (stereo not drawn) | inconclusive: 39.8 µM [inhibitor, single point] | 
40 | O=C(NCc1ccncc1)C(=O)Nc1nc(C23CC4CC(CC(C4)C2)C3)cs1 | inconclusive: 31.6 µM [inhibitor, single point] | 
41 | COc1ccc(OC)c(NC(=O)c2ccccc2NS(=O)(=O)c2cccc3cccnc23)c1 | inconclusive: 31.6 µM [inhibitor, single point] | 
42 | CCN(CC)S(=O)(=O)c1ccc(C(=O)Nc2nc3c(Cl)cc(Cl)cc3s2)cc1 |  | inactive: -1.8%

Row | SMILES | Potency | max response, negative = inhibition
43 | Cc1ccc(NC(=O)/C(C#N)=C/c2cc(C)n(-c3ccc(N4CCOCC4)c([N+](=O)[O-])c3)c2C)c(C)c1 | inconclusive: 39.8 µM [inhibitor, single point] | 
44 | Cc1c(C(=O)N2CCN(Cc3ccc4c(c3)OCO4)CC2)cccc1[N+](=O)[O-] | inconclusive: 1 µM [activator, single point] | 
45 | CSc1ccc(CNc2ncc(-c3ccccc3)n2C)cc1 |  | inactive: 0.749%
46 | CCOc1ccccc1NC(=O)CSc1nccn1-c1ccccc1 | inconclusive: 1 µM [inhibitor, single point] | 
47 | CN(Cc1ccccc1)S(=O)(=O)c1ccc(NC(=S)NC(=O)C2CCCCC2)cc1 | inconclusive: 39.8 µM [inhibitor, single point] | 
48 | CCOC(=O)CNC(=O)N1CCc2cc(S(=O)(=O)N3CCC(C)CC3)ccc21 |  | inactive: 15.6%
49 | CNC(=O)C1CCC(Cn2c(=O)[nH]c3ccsc3c2=O)CC1 (stereo not drawn) |  | inactive: -11.9%
50 | Cc1ccc(-c2nnc(SCC(=O)Nc3sc(C)c(C)c3C#N)n2C)cc1 | inconclusive: 39.8 µM [inhibitor, single point] | 
51 | CC1C(=O)OC2O[C@]3(C)CC[C@H]4C(C)CCC1[C@]24OO3 (stereo partly drawn) |  | inactive: -5.6%
52 | C=CCN1C(=O)/C(=C2\SC(N3CCOCC3)=NC2=O)c2cc(Br)ccc21 | inconclusive: 39.8 µM [activator, single point] | 
53 | CC(C)Oc1ccc(C(CC(=O)N(C)CCC#N)c2ccc(F)cc2)cc1 (stereo not drawn) | inconclusive: 31.6 µM [activator, single point] | 
54 | CCCC1C(C(=O)OCC)=C(C)NC(C)=C1C(=O)OCC | inconclusive: 25.1 µM [activator, single point] | 
55 | O=[N+]([O-])c1cc(/C=N/N2CCN(C3c4ccccc4-c4ccccc43)CC2)ccc1Cl | active: 12.6 µM | 
56 | CC(=O)Nc1ccc(C2=NN(Cc3nnc(-c4ccccc4)o3)C(=O)SC2)cc1 | inconclusive: 39.8 µM [activator, single point] | 
57 | O=C(CN1CCN(c2ccc(O)cc2)CC1)Nc1ccc(SC(F)F)cc1 | inconclusive: 39.8 µM [inhibitor, single point] | 
58 | N#Cc1c(NC(=S)NC(=O)c2ccccc2)sc2c1CCN(CCc1ccccc1)C2 | active: 15.8 µM | 
59 | CC1O[C@@H](O[C@@H]2C(O)C[C@H](O[C@@H]3C(O)C[C@@H](OC4CC[C@@]5(C)C6CC(O)[C@@]7(C)C(C8=CC(=O)OC8)CC[C@@]7(O)C6CC[C@@H]5C4)OC3C)OC2C)CC(O)[C@H]1O (stereo partly drawn) | inconclusive: 39.8 µM [activator, single point] | 
60 | Cc1cccc2cc(-c3ccccc3)c(-c3ccccc3)c[n+]12 | inconclusive: 25.1 µM [inhibitor, single point] | 
61 | COC(CNC(=O)c1ccc2nc(-c3cccs3)c(-c3cccs3)nc2c1)OC |  | inactive: 29.4%
62 | CCCOC(=O)c1c(NC(=O)C2c3ccccc3Oc3ccccc32)sc2c1CCC(C)C2 (stereo not drawn) | active: 20 µM | 
63 | Cc1ccccc1OCc1nnc(SCC(=O)Nc2ccc3c(c2)oc2ccccc23)n1C | active: 20 µM | 
